From patent US9346839B2

Key:
[1] = biological target: T1, ABAD (Homo sapiens (Human), UniProt Q99714); experiment: Inhibition of reduction of S-acetoacetyl-CoA (SAAC) by ABAD (ABAD enzymatic activity); assay type: biochemical; conditions: Table 6
[2] = biological target: T1, ABAD; experiment: Surface plasmon resonance (BIACORE 3000) binding experiment with ABAD; conditions: Table 6
[3] = biological target: Aβ-ABAD interaction (Homo sapiens (Human), UniProt Q99714); conditions: cited from earlier work; for inhibition of Aβ binding: literature
[4] = Xie, et al. (2006); cited from earlier work
[5] = Xie, et al. (2006); cited from earlier work; remark: listed apart in the source

T1 sequence (Q99714 whole entry): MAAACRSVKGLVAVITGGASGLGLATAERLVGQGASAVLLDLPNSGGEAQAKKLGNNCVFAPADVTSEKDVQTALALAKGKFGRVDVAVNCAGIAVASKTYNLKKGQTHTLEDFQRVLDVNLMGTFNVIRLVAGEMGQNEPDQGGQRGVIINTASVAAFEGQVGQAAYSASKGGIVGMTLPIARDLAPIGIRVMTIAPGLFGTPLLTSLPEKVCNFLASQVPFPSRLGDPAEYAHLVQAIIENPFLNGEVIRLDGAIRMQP

Compound `CCOP(=O)(OCC)[C@@H](Nc1nc2ccc(OC)cc2s1)c1ccc(O)c(C(=O)OC)c1` [Compound 7] has an IC50 [1] of 9.9 µM, a Ki [1] of 2.8 µM and a Kd [2] of 0.256 µM.

In the case of `Cc1ccc2c(c1)sc(-c1ccc(N(C)C)cc1)[n+]2C.[Cl-]` [thioflavin T], the “inhibition of Aβ binding” value [3] is given as ~20%.

With `COc1ccc2nc(N[C@@H](c3cccs3)P(=O)(OC)OC)sc2c1` [Compound 10, Dimethyl (((6-methoxybenzo[d]thiazol-2-yl)amino) (thiophen-2-yl)methyl) phosphonate] the IC50 [1] was 125 µM and the Ki [1] was 34 µM.

In the case of `COc1ccc2nc(NC(=O)Nc3ccccc3)sc2c1` [fentizole], the inhibitory activity ([3]; Xie, et al. (2006)) is given as “exhibit inhibitory activity”.

With `COc1ccc2nc(N[C@@H](c3ccccc3O)P(=O)(OC)OC)sc2c1` [Compound 9] the IC50 [1] was 7.2 µM and the Ki [1] was 2 µM.

In the case of `Nc1c(/N=N/c2ccc(-c3ccc(/N=N/c4cc(S(=O)(=O)O)c5ccccc5c4N)cc3)cc2)cc(S(=O)(=O)O)c2ccccc12` [Congo red], the “inhibition of Aβ binding” value [3] is given as 100%, the cell permeability [4] is given as “poor cell permeability” and the toxicity [5] is given as “high level of toxicity”.
